The whole screen tested about 45,000 compounds, of which about 65 (0.1%) were called active. The call rests on the fitted dose curve; in most records, active means well fitted activation curve with a large enough effect; inconclusive means small, poorly fitted or top-dose-only effect; inactive means no such curve, though single readings can be large or run the other way. The list shows a part of the results.
biological target: Galactocerebrosidase (Homo sapiens) (UniProt P54803); assay: A Novel Cell-Based Assay to Identify Small Molecules for B -Galactocerebrosidase; conditions: 145M-Twi-hGALC-G270D cells (Twitcher mouse brain line with human GALC G270D), HMU-beta-Gal fluorescence, 48 h; series mostly up to 57.5 µM; activation: at the top concentration; further: 0% is about no effect; nearly all actives have a fitted effect of over 65% in size
Chain of UniProt P54803 (P54803 whole entry, looked up): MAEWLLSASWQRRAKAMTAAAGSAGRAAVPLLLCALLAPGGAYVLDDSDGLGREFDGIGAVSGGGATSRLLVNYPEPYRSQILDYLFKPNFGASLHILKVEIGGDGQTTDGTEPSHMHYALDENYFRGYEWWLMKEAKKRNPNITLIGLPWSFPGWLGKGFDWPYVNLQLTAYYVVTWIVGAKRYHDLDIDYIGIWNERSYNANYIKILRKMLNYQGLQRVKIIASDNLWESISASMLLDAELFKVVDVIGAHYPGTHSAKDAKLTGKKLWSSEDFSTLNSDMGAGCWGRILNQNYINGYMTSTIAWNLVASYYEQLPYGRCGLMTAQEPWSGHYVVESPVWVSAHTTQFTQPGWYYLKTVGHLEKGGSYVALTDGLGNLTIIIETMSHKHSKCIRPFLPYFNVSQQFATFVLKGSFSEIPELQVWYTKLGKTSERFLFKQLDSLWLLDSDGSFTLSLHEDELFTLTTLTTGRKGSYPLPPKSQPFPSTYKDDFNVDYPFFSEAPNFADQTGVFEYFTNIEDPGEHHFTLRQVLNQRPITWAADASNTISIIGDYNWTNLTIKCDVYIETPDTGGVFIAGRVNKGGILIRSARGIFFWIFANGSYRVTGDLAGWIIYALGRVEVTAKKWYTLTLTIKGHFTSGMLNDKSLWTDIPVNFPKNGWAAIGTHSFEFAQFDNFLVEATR
Outline: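 Mutant human GALC (G270D), stably expressed in a Twitcher mouse brain cell line lacking endogenous GALC, is measured in live-treated cells via 6-hexadecanoylamino-4-methylumbelliferyl-β-galactoside hydrolysis (0.1 mM final, pH 5.2) with fluorescent detection.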

activation, inactive:
CCOC(=O)N1CCC(NC(=O)c2cnn(-c3ccc(OC)cc3)c2C2CCN(C(=O)OC(C)(C)C)CC2)CC1 -3%, Clc1ccc(-c2noc3ncnc(NC4CCCCC4)c23)cc1 0.531%, Cc1ccc(CCNC(=O)c2cnc3c(-c4ccc(F)cc4)c(C)nn3c2C)cc1 -2.64%, COc1ccc(OC)c(C2CC(=O)c3c([nH]c(C(=O)OCc4ccc(C)cc4)c3C)C2)c1 (configuration not stated) -13.9%, Cc1ccccc1OCCn1cc(C(=O)c2ccco2)c2ccccc21 -20%, Cc1ccc(-c2nn3c(=O)cc(CN4CCN(C(=O)Nc5cccc(C(F)(F)F)c5)CC4)nc3s2)cc1 0.492%, Cc1ccc(-c2c(C(=O)N3CCN(c4ccc(F)cc4)CC3)oc(=O)c3ccccc23)cc1 -1.67%, Cc1cc(C)cc(N2C(=O)N(Cc3cc(=O)n4ccccc4n3)c3ccccc3S2(=O)=O)c1 -22.4%, COc1cc(OC)c(OC)cc1CN1CCc2nc(N3CCN(C)CC3)ncc2C1 -14.5%, CCc1nn(CC(=O)NCc2ccc(C)cc2)c(=O)c2cc3occc3n12 -19.7%, CCOc1ccc(CN2CCN(Cc3ccc4c(c3)c3ccccc3n4CC)CC2)cc1 -23.2%, O=C(CCn1c(=O)c2ccccc2n(Cc2cccc(F)c2)c1=O)NCc1ccc2c(c1)OCO2 -7.16%, Cc1cccc2c1-c1sc(C(=O)NCCCN3CCN(c4ccccc4F)CC3)cc1CO2 -16%, COc1ccc(N2CCN(c3nc4ccc(C(=O)c5ccccc5)cc4n4cnnc34)CC2)cc1 -14.5%, COc1ccc(C(=O)Nc2ccc3nc4c(c(Nc5ccccc5OC)c3c2)CCCC4)c(OC)c1 -8.1%, CCCCN(CC)C(=O)c1c[nH]c2ccc(S(=O)(=O)N(C)c3ccc(Cl)cc3)cc2c1=O 7.94%, O=C1CC(c2c(F)cccc2Cl)c2c(ccc3ccccc23)N1 (configuration not stated) 0.16%, COc1cc(C2c3c(oc4ccc(F)cc4c3=O)C(=O)N2Cc2ccc3c(c2)OCO3)ccc1O (configuration not stated) -10.1%, COC(=O)c1cccnc1-n1c(=O)c2cccnc2n(CC(=O)Nc2cccc(C)c2)c1=O -18.5%, COc1ccc(NC(=O)Cc2c(C(=O)O)[nH]c3ccccc23)cc1OC -0.821%, O=C(CCS(=O)(=O)c1nc(-c2ccc3c(c2)OCO3)cc(C(F)(F)F)n1)Nc1ccc(Br)cc1 -20.7%, COc1ccc(CNC(=O)Cc2coc3ccc(C)cc23)cc1 -17.3%, Cc1ccc(NC(=O)c2oc3ccc(S(=O)(=O)N4CCOCC4)cc3c2C)c(C)c1 -15%, CCOC(=O)c1c(C)n(C)c2ccc(O)cc12 -7.46%, CCN(c1ccccc1C)S(=O)(=O)c1nnc(NC(=O)c2ccccc2C)s1 -11.8%, Nc1cc(-c2ccncc2)c[nH]c1=O -12.4%, COc1cc(NC(=O)N2CCSc3ccccc32)cc(OC)c1OC -15.9%, CC(C)Oc1ccc(CNC(=O)c2ccc3c(c2)nc2n3CCOC2)cc1 -24.7%, Cc1cc(C)c(NC(=O)c2oc3c(c2C)-c2[nH]ncc2CC3)c(C)c1 -0.819%, Cc1cccc(CN2CCN(CC(=O)NCCc3ccc(Cl)cc3)C2=O)c1 -16.9%, CCOc1cc2c(cc1OCC)C(CC(=O)O)N(C(=O)Nc1ccc(Br)c(C)c1)CC2 (configuration not stated) -18.4%, O=C(Nc1ccc(N2CCN(c3ccc(F)cc3)CC2)c(C(=O)O)c1)c1cccs1 -6.77%, CCCCOc1ccc(C(=O)NCCc2sc3nc(-c4ccc(OC)cc4)nn3c2C)cc1 -11%, CCOc1ccc(N(C)C(=O)C2CCN(S(=O)(=O)c3c(C)noc3/C=C/c3ccc(C)cc3)CC2)cc1 -29.1%, Cc1ccc(NC(=O)/C=C/c2ccco2)cc1F -19.3%, O=C(NCc1ccc(Cl)cc1)C1CCC(CNS(=O)(=O)c2ccccc2)CC1 (configuration not stated) 12.9%, CCN(CC)c1nn2c(=O)c(C(=O)NCCc3ccccc3C)cnc2s1 -1.75%, COc1ccc(Cl)cc1NC(=O)CSc1nc2c(oc3ccccc32)c(=O)n1Cc1ccco1 -3.43%, Fc1ccccc1N1CCN(c2ncnc3onc(-c4ccc(Cl)cc4)c23)CC1 -25.6%, CCOC(=O)c1ccccc1NC(=O)CN1C(=O)CC(c2ccccc2)Sc2ccccc21 (configuration not stated) -2.18%, Cc1ccc(C(=O)Nc2ccc(C(=O)O)cc2)cc1S(=O)(=O)N1CCC(C)CC1 7.11%, Cc1cccc(-c2nc3scc(CCNS(=O)(=O)c4ccc(F)c(C(F)(F)F)c4)n3n2)c1 -9.89%, CCCCOc1ccc(C(=O)NCc2cn3cccc(C)c3n2)cc1 -9.5%, Cc1c(C(=O)Nc2ccc(F)c(Cl)c2)sc2nc3n(c(=O)c12)CCC3 -19%, COc1ccc(NC(=O)c2ccco2)cc1NC(=O)c1ccc(C#N)cc1F -6.19%, COCCn1c(SCC(=O)c2ccc(C)cc2)nc2cc(C(=O)NC3CCCC3)ccc2c1=O -9.77%, COc1ccccc1N1CCN(c2ncnc3c2cnn3-c2ccc(C)cc2)CC1 -7.36%, FC(F)(F)c1cc(Nc2nc3ccccc3c3nncn23)ccc1Cl -7.37%, CCCCCSc1nnc2c(n1)[nH]c1c(C)cccc12 -7.05%, O=C(NCCc1ccccc1)C1CCN(c2nc3ccccc3nc2C(F)(F)F)CC1 -1.06%, CCCNC(=O)c1cnn(-c2ccc(C)c(C)c2)c1C1CCN(C(=O)OC(C)(C)C)CC1 -5.54%, O=S(=O)(NCC(c1ccco1)N1CCN(c2ccccc2)CC1)c1cc(F)ccc1F (configuration not stated) -3.27%, Cc1cc(C)cc(N2CCn3c2nc2c3c(=O)n(Cc3c(F)cccc3Cl)c(=O)n2C)c1 0.752%, O=C(C1CC1)N1CCc2cc(Br)cc(S(=O)(=O)Nc3ccc(F)c(F)c3)c21 -5.76%, CCCOc1ccc(C(=O)N2CCC(c3nc4ccccc4s3)CC2)cc1 -19.6%, CCc1ccc(/C=C(/C#N)c2nc(-c3ccc(C)cc3)cs2)cc1 -9.23%, CC(C)(C)OC(=O)N1CCC(c2c(C(=O)NCCN3CCOCC3)cnn2-c2cccc(Cl)c2)CC1 -21.6%, O=C(Cn1c(=O)c(CNc2ccccc2)cc2cc3c(cc21)OCCO3)Nc1ccccc1Cl -24.3%, CCc1ccc2oc(-c3ccc(C)c(NC(=O)Cc4ccccc4)c3)nc2c1 -12.8%, O=c1c(S(=O)(=O)c2ccccc2)cn(Cc2ccccc2)c2cc(N3CCCC3)c(F)cc12 -35.6%, CCOc1ccc(N(Cc2ccccc2)C(=O)c2nc(SC)ncc2Cl)cc1 -13.4%, Cc1nn(C)c2c1c(C(F)(F)F)cc(=O)n2Cc1ccc(Br)cc1F -9.44%, Cn1c(=O)c2c(nc(CN3CCN(c4ccccc4F)CC3)n2Cc2ccc(F)cc2)n(C)c1=O -7.28%, CCOC(=O)C1CCN(CCC(=O)Nc2ccccc2OC)CC1 15.7%, N#Cc1ccc(NC(=O)COCc2cc(-c3ccco3)on2)cc1 8.88%, COc1ccc(OC)c(C2CC(=O)Nc3c2c(=O)[nH]c2nc4ccccc4n32)c1 (configuration not stated) -5.78%, Cc1cccc(NC(=O)CSc2nc3n[nH]c(C)c3c(=N)n2-c2cccc(Cl)c2)c1 -8.24%, Cc1cc(C)cc(C(=O)NCCc2sc(-c3ccc(F)cc3)nc2C)c1 -3.11%, Cc1cccc(NC(=O)N2CCC(N3CCN(Cc4ccccc4)C(=O)C3=O)CC2)c1C -6.77%, CCOc1ccc(OCC(=O)NCCS(=O)(=O)N2CCN(c3cccc(Cl)c3)CC2)cc1 0.118%, Cc1cccc(N2CCN(Cc3cc(=O)oc4cc(C)ccc34)CC2C)c1 (configuration not stated) -13.4%, CC(C)c1ccc(CNc2nc(-c3ccco3)nn2S(=O)(=O)c2ccc(F)cc2)cc1 -2.12%, Cc1ccccc1N1CC(c2nnc(NC(=O)c3ccco3)s2)CC1=O (configuration not stated) -11.1%, O=C(CN1C(=O)c2cccc3cccc1c23)Nc1ccccc1Br -8.56%, Cn1nc(C(=O)N2CCN(c3ccccc3F)CC2)c2c1-c1ccccc1S(=O)(=O)C2 -11.3%, CCCCNS(=O)(=O)c1ccc2nc(-c3cccnc3)cc(C(=O)NC(C)C)c2c1 -13.8%, CCCC1N=C2c3ccccc3N=C(SCC(=O)NCCc3ccc(Cl)cc3)N2C1=O (configuration not stated) -14.4%, O=C(c1cc(-c2ccc(F)cc2)on1)N1CCN(c2ccc(F)cc2)CC1 -11.9%, CCOC(=O)COc1ccc(C)cc1C(=O)c1ccn2nc(-c3ccc(Cl)cc3)cc2n1 -4.02%, CC(C)NC(=O)c1ccc2c(c1)nc1n2CCCCC1 -9.01%, CCCOC(=O)CSc1nnc(-c2ccccc2)o1 -10.2%, CCOC(=O)c1ccccc1NC(=O)c1cc2ccc3cccnc3c2[nH]1 -6.8%, Cc1oc2ncnc(N3CCOCC3)c2c1C(=O)NCCc1ccccc1 -8.75%, CCn1c(C(=O)Nc2ccc(C)cc2C)cc2sc(Cl)cc21 -3.1%, CC1CCC(NC(=O)C2(C)Cc3ccccc3C(=O)N2Cc2ccc(Cl)cc2)CC1 (configuration not stated) 3.18%, Cc1ccc(NS(=O)(=O)c2ccc3nc(-c4ccccc4)[nH]c3c2)c(Br)c1 -11%, COc1ccc(-c2noc(CC(=O)Nc3cc(OC)ccc3OC)n2)cc1 -0.157%, Cc1sc2ncn(CC(=O)N(C)c3ccc(C(C)C)cc3)c(=O)c2c1S(=O)(=O)N1CCC(C)CC1 -11.6%, Cc1ccc(Nc2nc3ccc(C(=O)c4ccccc4)cc3n3c(C)nnc23)c(C)c1 -9.62%, O=C(/C=C/c1ccc(Cl)cc1)N1CCC(c2nc3ccccc3o2)CC1 -6.56%, CCCCN(CC)CCCNC(=O)c1cn(CC)c2ccc(S(=O)(=O)N3CCc4ccccc4C3)cc2c1=O -12.8%, CCCn1c(=O)c2sccc2n2c(CCCC(=O)N3CCN(c4cccc(Cl)c4)CC3)nnc12 -13.6%, CC(=O)c1cccc(NC(=O)CN2C(=O)CC(c3ccc(C)cc3C)=Nc3ccccc32)c1 -5.31%, COc1ccc(CCNC(=O)c2cc3c(=O)n(C)c4ccccc4c3s2)cc1OC 3.8%, O=C(Cn1cc(C(=O)c2ccccc2)c(=O)c2cc3c(cc21)OCCO3)Nc1ccc(F)c(F)c1 -25.9%, Cc1ccc(C)c(N2CCN(S(=O)(=O)c3ccc(C(=O)N(C)C)s3)CC2)c1 -17.7%, CCc1cc2c(cc3c(=O)n(CC(=O)N4CCN(c5cccc(C)c5C)CC4)nc(CC)n32)s1 -1.27%
